This passage reports z-score results from PubChem BioAssay AID488969 (Vanderbilt High Throughput Screening Facility, 2010).

Several values for one entry are separate records, joined by “and”; a condition that tells them apart may be missing. Identical values can stand only once. Over roughly 110,000 compounds, “z-score” has its median near -0.1; the highest 2% begin near 2. The list shows a part of the results. Activity calls are given as the source filed them.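 Rule for the calls: active = z-score in the third read window above 3 or below -3; inactive = the rest.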

The assay deals with Metabotropic glutamate receptor 8 (Rattus norvegicus) (UniProt P70579). Nature of the assay: mGluR8 Gi/Go-coupled signaling modulation – cell-based, rat, thallium flux, HTS, primary screen (AID 488969). The settings on record: HEK293 rat mGluR8, GIRK (G protein-gated inwardly rectifying potassium channel) thallium flux, FluoZin2; at 10 µM; stronger effect = higher value; submaximal glutamate (EC20) added with thallium.
Sequence of UniProt P70579 (P70579 whole entry, looked up): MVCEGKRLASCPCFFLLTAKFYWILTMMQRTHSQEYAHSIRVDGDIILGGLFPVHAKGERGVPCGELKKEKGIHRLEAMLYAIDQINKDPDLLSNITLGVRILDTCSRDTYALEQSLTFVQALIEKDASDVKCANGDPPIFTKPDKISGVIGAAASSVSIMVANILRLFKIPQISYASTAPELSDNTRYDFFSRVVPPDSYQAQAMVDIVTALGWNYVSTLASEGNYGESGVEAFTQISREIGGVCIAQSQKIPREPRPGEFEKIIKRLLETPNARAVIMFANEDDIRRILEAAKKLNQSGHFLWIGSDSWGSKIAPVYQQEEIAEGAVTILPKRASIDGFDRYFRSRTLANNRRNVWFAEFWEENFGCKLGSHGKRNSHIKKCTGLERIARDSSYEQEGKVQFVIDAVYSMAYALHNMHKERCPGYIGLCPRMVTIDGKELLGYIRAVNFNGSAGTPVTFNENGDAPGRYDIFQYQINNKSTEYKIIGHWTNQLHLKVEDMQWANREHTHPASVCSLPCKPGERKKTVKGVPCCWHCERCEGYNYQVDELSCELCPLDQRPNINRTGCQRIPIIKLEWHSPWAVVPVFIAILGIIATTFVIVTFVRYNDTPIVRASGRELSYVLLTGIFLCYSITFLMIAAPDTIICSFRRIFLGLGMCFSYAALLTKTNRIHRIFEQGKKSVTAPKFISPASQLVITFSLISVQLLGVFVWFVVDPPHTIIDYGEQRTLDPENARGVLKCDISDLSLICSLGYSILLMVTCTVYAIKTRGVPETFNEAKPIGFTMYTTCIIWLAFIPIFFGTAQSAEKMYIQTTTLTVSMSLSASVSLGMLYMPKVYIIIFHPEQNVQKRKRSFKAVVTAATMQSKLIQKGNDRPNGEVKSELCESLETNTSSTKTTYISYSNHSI
`Cc1ccc(NC(=O)c2onc(C)c2Cl)cc1` returned a z-score of -0.347.

Turning to `CCOC(=O)c1c(NC(=O)C(C)N2CCN(C(=O)c3ccco3)CC2)sc2c1CCCC2` (centres undefined), the z-score was -0.531.

Regarding `CCN(CC)CCCOc1ccc(C)cc1Br`, the z-score stood at 1.32.

In the case of `O=C(Cc1cccc2ccccc12)NC(NC(=S)Nc1ccccc1Cl)C(Cl)(Cl)Cl` (centres undefined), the z-score is -0.0457.

`O=C(CN1CCOCC1)Nc1ccc(C2CCCCC2)cc1` gave a z-score of 2.23.

`CC1(C)C2CCC1(CS(=O)(=O)N1CCCc3ccccc31)C(=O)C2` (centres undefined) registered a z-score of -0.115.

For `CCC(C)n1cnc2c(=O)oc3ccccc3c21` (centres undefined), the z-score was -0.639.

Compound `COc1ccc(NC2=NCC(=O)N2Cc2cccs2)cc1` returned a z-score of -0.276.

In turn, `Cn1c(NC(=O)C[n+]2cc(-c3ccc(F)cc3)n3c2CCC3)cc(=O)n(C)c1=O` had a z-score of -0.969.

Compound `C=CCn1c(SCC(=O)Nc2cc(C)on2)nc2sc(C)c(C)c2c1=O` returned a z-score of -0.0679.

`O=C(CSc1nnc2c(Cl)cc(Cl)cn12)N1CCOCC1`: the z-score is -0.432.

`C=CCn1c(SC(C)C(=O)NCc2ccc3c(c2)OCO3)nc2scc(-c3ccccc3)c2c1=O` (centres undefined) showed a z-score of 0.000751.

In the case of `CC(C)(C)C1CCc2c(sc(NC(=O)c3ccncc3)c2C(N)=O)C1` (centres undefined), the z-score is -0.29.

For `CC(=O)Nc1c2c3c(cccc3n(C)c1=O)C(=O)c1ccccc1-2`, the z-score was -0.498.

Consider `COc1ccc(S(=O)(=O)N2CCC(C(=O)NC3CC3)CC2)cc1Cl`, for which the z-score is -0.23.

In turn, `CCc1ccc2nc3c(c(C(=O)O)c2c1)CCC3` displayed a z-score of -0.0608.

As to `O=C(CSc1nnc(-c2ccccn2)n1-c1ccc(Cl)cc1)Nc1ccc2c(c1)OCO2`, the z-score was -0.134.

In turn, `CN(C(=O)Nc1ccc(Cl)cc1)c1c2c(nn1C)CCCC2` showed a z-score of -0.08.

In turn, `O=C(O)CSc1nc2c(c(=O)[nH]1)CCCC2` yielded a z-score of -0.317.

For `Cc1c(Cl)cnc(NC(=O)CSc2nncs2)c1Cl`, the z-score was -0.0786.

Turning to `Cc1cc(C)nc(N(C#N)CC(=O)N(c2ccccc2)C(C)C)n1`, the z-score was 0.0248.

Turning to `COc1ccc(Cl)cc1NC(=O)C12CCC(C)(C(=O)O1)C2(C)C` (centres undefined), the z-score is 0.0212.

In turn, `Cc1ccc2nc(N3CCN(S(=O)(=O)c4ccc5c(c4)OCCO5)CC3)c(C#N)cc2c1` returned a z-score of 0.11.

Compound `CCc1c(C)sc(NC(=O)c2cc(-c3ccc(O)cc3)on2)c1C#N` displayed a z-score of -0.0198.

Regarding `COc1cccc(C2CC(c3ccc(C)cc3)n3ncnc3N2)c1` (centres undefined), the z-score was -0.207.

Compound `COc1ccc(CCNc2ncnc3c2oc2ccccc23)cc1OC` had a z-score of -0.847.

With `COC(=O)/C(=C\Nc1ccc(OC)cc1)NC(=O)c1ccc(Cl)cc1Cl`, the z-score is -0.0425.

Consider `C=CCn1c(=S)[nH]c2sc3c(c2c1=O)CCC3`, for which the z-score is active: 10.9.

Compound `COc1ccc(C(=O)Cc2ccc(OC)c(OC)c2)cc1` showed a z-score of 0.236.

Take `Cc1c(C(=O)NC(C(C)C)C(C)C)cccc1[N+](=O)[O-]`: the z-score is -0.0419.

The compound `Cc1cc(C(=O)CN2C(=O)NC(c3ccccc3)(c3ccccc3)C2=O)c(C)n1Cc1ccccc1` gave a z-score of 0.0764.

The compound `Nc1nnc(SCCN2C(=O)c3ccccc3S2(=O)=O)s1` gave a z-score of 0.889.

Consider `O=C(N/N=C/C1C(c2ccccc2)C1(Cl)Cl)c1cccc(Br)c1` (centres undefined), for which the z-score amounted to 0.695.

The compound `CCN(CC)S(=O)(=O)c1cccc(NC(=O)COC(=O)c2ccc(Br)o2)c1` had a z-score of -0.112.

The compound `COc1ccccc1C(=O)Nc1ccc(CN2CCCCC2)cc1` gave a z-score of 0.53.

For the compound `CC1(C(=O)NC2CCCCCCC2)CC1(Cl)Cl` (centres undefined), the z-score is -0.175.

On to `COc1ccc(C(=O)Nc2ccc([N+](=O)[O-])cn2)c(OC)c1`, for which the z-score was found to be 1.48.

In turn, `CCNc1nc(NCC)nc(C(=O)OCCO)n1` yielded a z-score of -0.0769.

Take `O=C1CC(c2ccccc2)C(C(=O)O)N1` (centres undefined): the z-score was -0.0442.

For the compound `COc1ccc(N(CC(=O)NCc2ccc3c(c2)OCO3)S(=O)(=O)c2c(C)nn(C)c2C)cc1`, the z-score was -0.575.

Compound `COCCN(C(=O)Cc1cccs1)C(C(=O)NCc1ccc(OC)cc1)c1ccc(C(C)C)cc1` (centres undefined) gave a z-score of -0.312.

On to `C[N+]1=C(/C=C/Nc2ccccc2Cl)C(C)(C)c2ccccc21`, for which the z-score stood at 0.3.

`CCOc1ccc(CCNC(=O)CN2CCN(Cc3ccc(F)cc3)C2=O)cc1OCC` registered a z-score of 0.704.

For the compound `O=C(O)CCc1ccc(-c2ccc(Br)cc2)n1Cc1ccco1`, the z-score was -0.363.

With `CCc1ccc(Nc2ncc3c(n2)CC(c2ccc(OC)cc2)CC3=O)cc1` (centres undefined), the z-score is -0.0834.

On to `CC1(C)CC(O)C(C(O)c2cccc([N+](=O)[O-])c2)C(C)(C)N1` (centres undefined), for which the z-score is -0.115.

Take `COc1ccc(CC(NC(C)=O)C(=O)NC2CCN(C(=O)Nc3ccccc3Cl)CC2)cc1OC` (centres undefined): the z-score turned out to be 0.0243.

For the compound `O=C(NCC1CCNCC1)c1ccncc1`, the z-score is 0.0804.

Compound `C/C(=N\NC(=O)C1(C)CC1(Br)Br)c1ccc(NC(=O)c2ccc(C)o2)cc1` (centres undefined) registered a z-score of 0.0535.

On to `Cc1ccc(S(=O)(=O)N2CCCCC2)cc1NC(=O)C1CC(=O)N(Cc2ccccc2)C1` (centres undefined), for which the z-score was -0.177.

Regarding `Cn1c(=O)c2c(nc(-n3ccnc3)n2Cc2ccccc2)n(C)c1=O`, the z-score was active: -3.15.

For `O=C(CN(C(=O)c1ccccc1Cl)C1CCCCC1)Nc1ccc(Cl)c([N+](=O)[O-])c1`, the z-score was -0.105.

Regarding `CCOc1ccccc1OCC(=O)Nc1ccc(Cl)cc1Cl`, the z-score was -0.155.

The compound `O=C(COC(=O)[C@H](Cc1c[nH]c2ccccc12)NC(=O)c1cccs1)NCc1ccccc1` yielded a z-score of -0.557.

As to `COc1ccccc1-c1cc(C(=O)N/N=C/C=C/c2ccccc2[N+](=O)[O-])c2ccccc2n1`, the z-score is -0.217.

On to `COC(=O)c1ccc2ccn(CC(=O)NC(C)C)c2c1`, for which the z-score was found to be 1.53.

`CN(c1ccc(C(=O)NC2CC3CCC2C3)cc1)S(C)(=O)=O` (centres undefined): the z-score was -0.256.

In turn, `CCCn1c(-c2cccs2)nc2nc3ccccc3nc21` registered a z-score of -1.28.

`O=C(CCN1C(=O)C2C3C=CC(C3)C2C1=O)Nc1nccs1` (centres undefined) had a z-score of 0.473.

`Cc1cc[n+]2c3c(cccc13)CCC2` showed a z-score of 0.0571.

`CCN(CCNC(=O)CN(C)S(=O)(=O)c1cccc2nsnc12)c1ccccc1` had a z-score of 0.24.

As to `CCOc1cc(CNc2ccc(Br)cc2)cc(Br)c1OCC(=O)NC(C)(C)C`, the z-score was 1.33.

On to `O=[n+]1cc(-c2ccccc2)n([O-])c2c1CCC2`, for which the z-score is active: -5.48.

In turn, `Cc1cc(C(=O)Nc2c(C)nn(Cc3c(Cl)cccc3Cl)c2C)no1` gave a z-score of -0.237.

The compound `O=C(Nc1nnc(SCc2ccccc2Cl)s1)C1COc2ccccc2O1` (centres undefined) had a z-score of -0.0164.

Consider `O=C(O)CCSc1ccc2ccccc2n1`, for which the z-score is -0.167 and -0.976.

For the compound `COc1ccc(Nc2c3c(c(C#N)c4nc5ccccc5n24)CCC3)cc1`, the z-score is -0.0817.

Turning to `CCOC(=O)c1sc(=NC(=O)c2ccc(OC)c(OC)c2)n(C)c1C`, the z-score is 0.451.

On to `CCOc1ccc(NC(=O)C23CC4CC(C2)CC(c2ccccc2)(C4)C3)cc1`, for which the z-score is -0.381.

`COC(=O)c1nonc1NCn1nnc2ccccc21` yielded a z-score of 0.123.

The compound `Cc1[nH]n(-c2ccccc2)c(=O)c1C=Nc1ccc(S(=O)(=O)N(C)C)cc1` displayed a z-score of -0.431.

Take `Cc1ccc(C2=C/C(=C/c3cccnc3)C(=O)O2)c(C)c1`: the z-score is -0.254.

In the case of `CC(=O)NC1=NN(C(C)=O)C(C)(c2ccccc2)S1` (centres undefined), the z-score is -0.154.

Consider `CCOC(=O)Cc1csc(NC(=O)CSc2nncn2C)n1`, for which the z-score was found to be 0.176.

As for `CCOC(CNC(=O)c1ccc2c(c1)nc(C)n2-c1cccc(F)c1)OCC`, the z-score is -0.4.

In turn, `Cc1ccc(C2(C)NC(=O)N(CCOc3ccccc3)C2=O)cc1` (centres undefined) came in with a z-score of -0.0535.

In turn, `O=C(Nc1cnn(Cc2ccc(Cl)cc2)c1)c1cnccn1` returned a z-score of 0.0508.

For the compound `CCC(NC(=O)Cn1cnc2c(=O)n(C)c(=O)n(C)c21)c1ccccc1` (centres undefined), the z-score was determined as 0.0869.

Compound `CCOC(=O)c1ccc(S(=O)(=O)NNC(=O)COc2ccccc2C)cc1` registered a z-score of -0.143.

In turn, `COc1cccc(/C=N/Nc2ncc(C(F)(F)F)cc2Cl)c1O` gave a z-score of -0.0203.

As for `O=S(=O)(c1cccc2nsnc12)N1CCCC1`, the z-score is 0.0295.

`CCOC(=O)C1C(=O)N(C(=O)c2cncc(Br)c2)CC1c1ccccc1` (centres undefined): the z-score is -0.264.

Turning to `Cc1ccccc1Nc1nnc(SCc2cc(=O)n3ccsc3n2)s1`, the z-score is -0.269.

Consider `Cn1ncc(C#N)c1NC(=O)C1CC(c2ccc(Cl)c(Cl)c2)=NO1` (centres undefined), for which the z-score was -0.351.

In turn, `Cc1ccc(S(=O)(=O)/N=C(\N)Nc2nc(C)c3cc(C)ccc3n2)cc1` came in with a z-score of -0.37.

For `CCOC(=O)Cn1nnnc1C(CC)N(Cc1ccccc1)Cc1cc2cc(C)ccc2[nH]c1=O` (centres undefined), the z-score came out at 0.34.

Compound `Nc1[nH]n2c(=O)c3c(nc2c1N=Nc1ccccc1)CCCC3` displayed a z-score of -1.13.

In turn, `Cc1ccc(OCC(=O)Nc2ccccc2Sc2ccccc2)c([N+](=O)[O-])n1` gave a z-score of -0.243.

The compound `Cc1ccnc(NC(=O)Nc2ccc(F)cc2)c1` returned a z-score of -0.0587.

The compound `CCOc1ccc(-c2nc(C#N)c(N3CCOCC3)o2)cc1` had a z-score of -0.185.

Turning to `Cc1ccc2cc(CN(Cc3ccco3)C(=O)c3cccs3)c(=O)[nH]c2c1`, the z-score was -0.787.

Take `CCOC(=O)c1cc(NC(=O)c2c(C)noc2C)cc(C(=O)OCC)c1`: the z-score was -0.178.

`O=C(Nc1ccc(-c2nc3ccccc3o2)cc1)C1CCCO1` (centres undefined): the z-score was -0.486.

As to `CCOc1ccccc1C(=O)N[C@H](C(=O)Nc1nc2c(s1)CCCC2)C(C)C`, the z-score was 0.39.

`COc1ccc(CNC(=O)c2cc(-c3ccc(OC)c(OC)c3)on2)cc1` gave a z-score of -0.108.

With `Cc1ccc(C(=O)N2CCC(C(=O)NCc3cccnc3)CC2)cc1`, the z-score is 0.509.

With `COC(=O)c1cc(NC(=O)C2C3C=CC(C3)C2C(=O)O)cc(C(=O)OC)c1` (centres undefined), the z-score is -0.0594.

`O=C(CSc1nc2ccccc2s1)N1c2ccccc2Sc2ccccc21` registered a z-score of 0.0439.

The compound `CS(=O)(=O)N(CC(=O)N1CCOCC1)c1ccc2c3c(cccc13)CC2` yielded a z-score of -0.129.

Consider `CC(=O)Nc1ccc(S(=O)(=O)NCc2cccnc2)cc1`, for which the z-score is -0.27.

On to `Cc1ccc(S(=O)(=O)CC(=O)Nc2nc(-c3ccccc3)cs2)cc1`, for which the z-score was found to be 1.27.

As for `COc1ccc(C2C(=O)N(C3CCCCC3)CC(=O)N2C2CCCCC2)cc1` (centres undefined), the z-score was -0.274.

For `O=S(=O)(Nc1ccc(-c2nnc(SCc3ccc(Cl)cc3)o2)cc1)c1ccccc1`, the z-score was -0.0741.

`O=C1Cn2c(nc3ccccc32)-c2ccccc2N1` displayed a z-score of -0.188.

`O=C(Nc1ccc(F)cc1)c1nc[nH]c1C(=O)Nc1ccc([N+](=O)[O-])cc1` displayed a z-score of -0.0106.

On to `O=C(Nc1cccc(NC(=O)c2sc3ccccc3c2Cl)c1)c1ccco1`, for which the z-score is -0.446.

As for `COc1nc(Oc2ccc(C(=O)O)cc2)nc(Oc2ccc(C(=O)O)cc2)n1`, the z-score came to 0.286.

For `O=C(Nc1cccc(F)c1)C1C2C=CC3(CN(CCCN4CCOCC4)C(=O)C13)O2` (centres undefined), the z-score was -0.0721.

Compound `Cc1ccc2cc(C(c3nnnn3C3CCCC3)N(Cc3ccco3)Cc3cccs3)c(=O)[nH]c2c1` (centres undefined) returned a z-score of -0.0643.
